One assay concerns HSkMC. The assay can be described thus: cytotoxicity call (relative viability < 0.9). The settings on record: 10 µM.
The subject of a further assay is HepG2. The assay can be described thus: cytotoxicity call (relative viability < 0.9). The settings on record: 10 µM.
A further assay deals with S. aureus RN4220. The assay can be described thus: growth inhibition call (relative growth <= 0.2). The settings on record: 50 µM.

This is one part of the list.

In the case of `COc1ccccc1-c1cnc2c(c1)C(=O)N([C@@H](C)CO)C[C@H](C)[C@H](CN(C)C(=O)c1ccncc1)O2`, the cytotoxicity call with HSkMC and in the assay with HepG2 was “inactive” in each case. In the assay on S. aureus RN4220, the growth inhibition call is “inactive”.

`COc1ccc(S(=O)(=O)Nc2ccc3c(c2)C(=O)N([C@H](C)CO)C[C@H](C)[C@H](CN(C)C(=O)Nc2cccc4ccccc24)OCCCC[C@H](C)O3)cc1`: the cytotoxicity call in the assay on HSkMC and with HepG2 was “inactive” throughout. Besides, the growth inhibition call with S. aureus RN4220 was “inactive”.

As to `Cc1noc(C)c1S(=O)(=O)Nc1ccc2c(c1)C(=O)N([C@@H](C)CO)C[C@@H](C)[C@@H](CN(C)C(=O)Nc1ccccc1)O2`, the cytotoxicity call in the assay with HSkMC and in the assay on HepG2 was “inactive” in each case. The growth inhibition call in the assay on S. aureus RN4220 is “inactive”.

`C[C@H]1CN([C@@H](C)CO)C(=O)c2cc(C#CC3(O)CCCC3)cnc2O[C@@H]1CN(C)S(=O)(=O)c1cccc(F)c1`: the cytotoxicity call with HSkMC and with HepG2 was “inactive” in each case. The growth inhibition call with S. aureus RN4220 was “inactive”.

`C[C@@H]1CN([C@H](C)CO)C(=O)c2cc(-c3ccc(F)cc3)cnc2O[C@H]1CN(C)C(=O)Cc1ccccn1`: the cytotoxicity call with HSkMC and in the assay with HepG2 was “inactive” in each case. Moreover, in the assay with S. aureus RN4220, the growth inhibition call is “inactive”.

In the case of `COc1ccc(CN(C)C[C@@H]2OCCCC[C@@H](C)Oc3ccc(NC(=O)Nc4cccc5ccccc45)cc3C(=O)N([C@H](C)CO)C[C@H]2C)cc1`, the cytotoxicity call in the assay with HSkMC and in the assay on HepG2 was “active” in each case. The growth inhibition call in the assay on S. aureus RN4220 was “inactive”.

With `COc1ccc(S(=O)(=O)N(C)C[C@H]2OCCCC[C@@H](C)Oc3ccc(NS(=O)(=O)c4ccc(Cl)cc4)cc3C(=O)N([C@@H](C)CO)C[C@H]2C)cc1`, the cytotoxicity call in the assay on HSkMC is “inactive”. For the same compound, in the assay on HepG2, the cytotoxicity call was “active”. For the same compound, the growth inhibition call in the assay on S. aureus RN4220 was “inactive”.

On to `NCC[S@@](=O)c1c(-c2ccc(F)cc2)[nH]c2ccccc12`, for which the cytotoxicity call in the assay on HSkMC (human skeletal muscle cells) and in the assay on HepG2 was “inactive” each time. In addition, the growth inhibition call in the assay with S. aureus RN4220 was “inactive”.

In the case of `C[C@@H]1CN([C@H](C)CO)C(=O)c2cccc(NC(=O)C3CCCCC3)c2O[C@H]1CN(C)Cc1ccc(C(F)(F)F)cc1`, the cytotoxicity call with HSkMC and with HepG2 was “inactive” each time. Besides, the growth inhibition call in the assay with S. aureus RN4220 was “inactive”.

Values taken from the antibiotic and cytotoxicity screens of Wong et al. (2023).
